Usually AC50 stands for the concentration at which the activity in the assay is half-maximal.

Data on nine compounds can be found in PubChem BioAssay (NCATS).

This experiment in a line: qHTS Assay for Lipid Storage Modulators (AID 1519). The conditions noted are these: Drosophila S3 cells, BODIPY lipid droplet/cell ratio, laser cytometry, cells loaded with oleic acid. A digest of the protocol: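 Cells seeded at 5,000 per well were treated with compounds over a concentration series and loaded with oleic acid (400 uM, as added). Lipid droplet fluorescence (488 nm excitation, 500-530 nm channel) was read by laser-scanning cytometry and normalized to 20 uM Triacsin C.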
For orientation: Quantitative high-throughput screening tests each substance at several concentrations.

Where [1] appears, read: measured here: cell count channel max response.
Where [2] appears, read: measured here: lipid (BODIPY) channel AC50.
The mark [3] stands for this setting: measured here: lipid channel max response.
The mark [4] stands for this setting: measured here: cell number channel AC50.

Each structure is given as a SMILES string. The list shows a part of the results. These are further read-outs of the screen, such as a control signal, another cell line or another target. No call is given for them. Most of these compounds were active or inconclusive in the main read-out, so they are no random draw. The note in brackets gives the kind of curve behind each potency; many fits are weak.
Tags describe the fitted curve by direction and shape.

`CC(C)NC(=O)N1CCCC2(CCN(C(=O)c3cccn3C)CC2)C1`: the max response amounted to 27.3% under setting [1] and 37.9% under setting [3]. Besides, the AC50 under setting [2] was 11200 nM [rising, partial curve, poor fit].
Consider `Cc1c(C)c2c(c(C)c1O)CCC(C)(CCCC(C)CCCC(C)CCCC(C)C)O2` (configuration not stated), for which the max response runs as follows: under setting [1], 14.8%; under setting [3], 33.9%. The AC50 under setting [2] is 35500 nM [rising, single point].
With `CN(C)C(=O)c1ccc(-c2nc(Nc3ccncc3)c3ccccc3n2)cc1`, the max response under setting [1] was -5.56% and the max response under setting [3] was -14.1%. Also, under setting [2], the AC50 was 1780 nM [rising, partial curve, poor fit].
With `COc1ccccc1CCn1c(=O)c(-c2ccc(F)c(F)c2)nc2cncnc21`, the max response runs as follows: under setting [1], 11.6%; under setting [3], 20%. Further, the half-maximal activity concentration (AC50) under setting [2] was 794 nM [rising, full curve, poor fit].
With `O=c1c(-c2ccc(Cl)cc2)nc2cnc(N3CCOCC3)nc2n1C1CC1`, the max response is, setting by setting: under setting [1], 28%; under setting [3], 38.2%. Besides, the AC50 under setting [2] is 1780 nM [rising, partial curve, poor fit].
Take `Clc1ccccc1-c1cc(NCCN2CCOCC2)ncn1`: the max response under setting [1] came to 29.5% and the max response under setting [3] is 32.9%. For the same compound, the AC50 under setting [2] is 1120 nM [rising, full curve].
With `O=C(c1csnn1)N1CCC[C@@]2(CCN(c3ccccc3)C2)C1`, the max response by setting is: under setting [1], 3.62%; under setting [3], 8.41%. Under setting [4], the AC50 is 2240 nM [rising, partial curve, poor fit].
`CN(N=O)C(=O)N[C@H]1C(O)C(O)C(CO)O[C@@H]1O` (some centres not stated): the max response under setting [1] was determined as 19.8% and the max response under setting [3] was 35.9%. In addition, the AC50 under setting [2] was 1120 nM [rising, full curve, poor fit].
With `O=c1cnc2cnc(Oc3cccc(Cl)c3)nc2n1C1CC1`, the max response reads like this: under setting [1], 26.9%; under setting [3], 26.4%. Further, the AC50 under setting [4] was 708 nM [rising, full curve, poor fit].
